Results as given in PubChem BioAssay AID485344 (National Center for Advancing Translational Sciences (NCATS), 2010).
The campaign covered roughly 340,000 compounds. About 6,900 (2%) were called active. Rule as the data show it: active = inhibition above about 30%; inactive = below that, where a call was filed. Only a part is listed here, and it is no random draw. Where no call is shown, the source filed none.

Molecular target: D(2) dopamine receptor (Homo sapiens) (UniProt P14416)
Test: HTS Assay for Allosteric Antagonists of the Human D2 Dopamine Receptor: Primary Screen for Antagonists; also: 0% is about no effect
Conditions: HEK293 TREx D2 cells, calcium flux, dopamine EC80; at 10 µM; stronger effect = higher value
Procedure, shortened: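 Read-out: kinetic calcium fluorescence (1 cycle/s) in inducible HEK293 T-REx D2 cells after an EC80 dopamine addition that followed 180 s compound preincubation. Loss of the dopamine response indicates antagonism.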

UniProt P14416, sequence (P14416 whole entry, looked up): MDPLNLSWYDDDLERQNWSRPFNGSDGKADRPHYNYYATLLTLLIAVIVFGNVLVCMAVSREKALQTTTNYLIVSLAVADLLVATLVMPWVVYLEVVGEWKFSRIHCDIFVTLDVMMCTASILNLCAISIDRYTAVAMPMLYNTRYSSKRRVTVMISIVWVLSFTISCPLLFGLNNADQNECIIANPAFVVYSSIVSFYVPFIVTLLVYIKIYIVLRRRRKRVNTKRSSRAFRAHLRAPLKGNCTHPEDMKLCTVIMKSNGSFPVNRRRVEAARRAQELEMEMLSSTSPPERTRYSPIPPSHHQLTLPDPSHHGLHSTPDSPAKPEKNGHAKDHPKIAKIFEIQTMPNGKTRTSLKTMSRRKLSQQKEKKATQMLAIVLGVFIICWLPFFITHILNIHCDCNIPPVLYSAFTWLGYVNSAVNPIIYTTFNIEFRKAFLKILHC

| Compound | inhibition |
| --- | --- |
| Cc1ccc(C)c(NC(=O)CN(C)S(=O)(=O)c2ccc3c(c2)CCC(=O)N3)c1 | 9.85% |
| CC(C)NC(=O)N1CCN(S(=O)(=O)c2ccc3c(ccn3C)c2)CC1 | 0.0475% |
| CCOC(=O)c1cc(-c2ccc(OC)cc2)n(CCC(=O)NCc2ccc(OC)cc2)c1C | 1.93% |
| COc1ccc(/C=C\c2onc(C)c2S(=O)(=O)N2CCC(C(=O)Nc3ccc(F)cc3F)CC2)cc1 | -2.16% |
| CCOc1ccccc1NC(=O)NCc1ccc2c(c1)CCN2C(=O)c1ccccc1 | -23.1% |
| Cc1ccc(-c2nc3nc(C)cc(N4CCN(c5cccc(C)c5C)CC4)n3n2)cc1 | -6.47% |
| CN(C)c1ccc(CN(Cc2ccco2)C(=O)c2ccc(C(C)(C)C)cc2)cc1 | 0.76% |
| O=C(NCCc1ccc(Cl)cc1)c1cnc2sc(N3CCOCC3)nn2c1=O | -0.334% |
| Cc1oc(-c2cccc(Cl)c2)nc1CSc1nncn2c1cc1occc12 | -8.5% |
| COc1ccc(CC(=O)Nc2ccc3nc(Nc4ccc(OC)cc4)cc(C)c3c2)cc1 | 5.06% |
| CCc1ccc(CNC(=O)c2cc(=O)[nH]c3ccc(S(=O)(=O)N4CCCCC4)cc23)cc1 | -3.29% |
| Cc1c(Cl)ccc2sc(N3CCN(C(=O)C(C)C)CC3)nc12 | 16.9% |
| CCOC(=O)c1c(NC(=O)c2cc(C(C)C)on2)sc(C(C)=O)c1C | -1.58% |
| CCOC(=O)c1c(C)oc2nc(C)nc(Nc3ccc(C)c(Cl)c3)c12 | -3.88% |
| Cc1ccc(Sc2c(C)nn(-c3ccccc3)c2OC(=O)C(C)(C)C)cc1 | 13.2% |
| CCOc1ccc(NC(=O)CC2C(=O)N(c3ccc(F)cc3)C(=O)N2Cc2ccc(OC)c(OC)c2)cc1 (centres undefined) | 5.87% |
| COc1ccc(OC)c(NS(=O)(=O)c2cc3c(cc2Cl)N(C(C)=O)CCO3)c1 | 8.2% |
| COC(=O)c1c(NC(=O)C(C)Oc2ccc(Cl)c(C)c2)sc(C)c1C (centres undefined) | -4.71% |
| Cc1ccc(-c2cc(C(=O)Nc3cc([N+](=O)[O-])ccc3C)no2)cc1F | -12.2% |
| Cc1ccccc1C(=O)NCCNc1ccc([N+](=O)[O-])cc1 | active: 32.8% |
| CCN1C(=O)c2ccccc2S(=O)c2ccc(C(=O)NCc3ccc(OC)cc3)cc21 (centres undefined) | active: 81.4% |
| O=C(CSc1nc2cc(C(=O)NC3CCCC3)ccc2c(=O)n1CC1CCCO1)c1cccc(Cl)c1 (centres undefined) | 8.38% |
| Cc1ccc(C)c2sc(NC(=O)c3ccc(S(=O)(=O)N4CCC(C)CC4)cc3)nc12 | -25.9% |
| COc1ccccc1NC(=O)CSc1nnc(N)s1 | -0.579% |

| Compound | inhibition |
| --- | --- |
| COc1ccc(CCNc2oc(/C=C/c3cc(OC)c(OC)c(OC)c3)nc2C#N)cc1OC | 1.71% |
| CCOC(=O)c1ccc(N2C(=O)c3n[nH]c(-c4cccs4)c3C2c2ccc(OCC)cc2)cc1 (centres undefined) | 0.348% |
| COc1ccc(OC)c(CCNC(=O)CS(=O)(=O)Cc2nc(-c3cccc(Cl)c3)oc2C)c1 | -5.11% |
| CC12CN3CC(c4ccccc4)(CN(C1)C3c1ccc(O)cc1)C2=O (centres undefined) | 3.59% |
| CCOC(=O)c1c(NC(=O)C(C)Sc2cn(CCNC(=O)c3c(F)cccc3F)c3ccccc23)sc2c1CCC2 (centres undefined) | -2.82% |
| Cn1c(=O)oc2cc(S(=O)(=O)NC(Cc3ccccc3)C(=O)Nc3ccc(F)cc3)ccc21 (centres undefined) | 24.8% |
| CCn1c(C(=O)NCc2ccc(F)cc2)cc2oc3ccccc3c21 | 12.6% |
| COc1cccc(CNC(=O)c2cc(C)nc3c2c(C)nn3-c2ccc(C)cc2)c1 | -9.42% |
| COc1cccc(-n2c(=O)c3c(C)c(C)sc3n(CC(=O)NCCc3ccc(OC)c(OC)c3)c2=O)c1 | -19.5% |
| Cc1ccc(Cn2c(C(=O)O)c(CNCc3ccc(OC(C)C)cc3)c3ccc(C)cc32)cc1 | 13.2% |
| COc1cc(OC)c(NC(=O)C2CCN(S(=O)(=O)c3c(C)noc3/C=C/c3c(C)cc(C)cc3C)CC2)cc1Cl | -8.69% |
| COc1ccc(OC)c(NC(=O)CSc2ccc(-c3cccs3)nn2)c1 | -4.88% |
| CN(Cc1ccccc1)C(=O)c1cn(C)c2ccc(S(=O)(=O)N3CCCCC3)cc2c1=O | 5.59% |
| COc1cccc(OCc2nc3ccccc3n2CCOc2ccc(C)cc2)c1 | 11.5% |
| CCCN(C(=O)c1cc2c(=O)oc3ccccc3c2s1)c1ccc(CC)cc1 | 5.27% |
| CC(C)C(=O)Nc1ccc2nc(SCC(=O)N3CCCC3)sc2c1 | 7.89% |
| CCc1ccc(OCC(=O)NC(Cc2c[nH]c3ccccc23)C(=O)O)cc1 (centres undefined) | -23.9% |
| Cc1c(Cl)cccc1NC(=O)N1CCN(C(=O)c2nsc3ccccc23)CC1 | 13.3% |
| Cc1ccccc1Nc1cc(C(=O)NCCCN2CCN(c3cccc(Cl)c3)CC2)c2ccccc2n1 | 7.05% |
| Cc1ccc(C(C)C)c(OCCSc2nc(-c3ccccc3F)nc3cc(=O)[nH]n23)c1 | 4.65% |
| CCc1ccc(NC(=O)c2ccc(CN3CC(=O)N4CCCCC4C3=O)cc2)cc1 (centres undefined) | -8.48% |
| Cc1c(CCC(=O)NCCc2ccccc2)c(=O)oc2c(C)c(O)ccc12 | 9.21% |
| O=C(NCc1cccc(CNC(=O)C(=O)NCC2CCCO2)c1)C(=O)NCC1CCCO1 (centres undefined) | active: 30% |
| O=C(CCNS(=O)(=O)c1ccc(OC(F)(F)F)cc1)NCCc1c[nH]c2ccccc12 | active: 39.7% |

| Compound | inhibition |
| --- | --- |
| Cc1ccc(CCNS(=O)(=O)c2cc(-c3cc(C)no3)ccc2C)cc1 | 0.171% |
| O=C(NC1CC(=O)N(c2cccc(F)c2)C1)c1cccs1 (centres undefined) | 17% |
| CCOc1ccc(C(=O)NCc2ccc3c(c2)CCN3C(=O)c2ccc(Cl)cc2)cc1 | -3.19% |
| CC(C)N(C(=O)Cn1cc(SCC(=O)Nc2ccccc2F)c2ccccc21)C(C)C | -11.3% |
| Cc1cccc(-n2ncc(C(=O)N3CCOCC3)c2C2CCN(C(=O)OC(C)(C)C)CC2)c1 | 1.85% |
| COCCN(Cc1cccs1)S(=O)(=O)c1cc(-c2cc(C)no2)ccc1C | 4.55% |
| Cn1nnc2c(N3CCN(c4cccc(Cl)c4)CC3)ncnc21 | 8.4% |
| COCCCNC(=O)c1c(NC(=O)Cc2coc3c(C)c(C)ccc23)sc2c1CCCC2 | -9.34% |
| Cc1cccc(C(=O)OCC(=O)NN2C(=O)NC3(CCC(C)CC3)C2=O)c1O (centres undefined) | active: 30.6% |
| CCCCOC(=O)c1c(N)n(-c2ccc(OC)cc2OC)c2nc3ccccc3nc12 | -20.9% |
| CCC(Sc1nnc2c(n1)[nH]c1ccccc12)C(=O)Nc1nnc(C(C)C)s1 (centres undefined) | -8.36% |
| CCCCN(CC)CCCNC(=O)CS(=O)(=O)Cc1nc(-c2ccc(C)cc2)oc1C | 13% |
| O=C(Nc1nnc(N2CCCCCC2)s1)Nc1cc(F)ccc1F | 19.5% |
| CCCOc1ccc(C(=O)Nc2ccc3oc(-c4ccncc4)nc3c2)cc1 | -3.02% |
| O=C(NCc1ccc(Cl)cc1)c1cnc2sc(N3CCOCC3)nn2c1=O | 7.74% |
| Cc1c2cnn(CC(=O)NCc3ccc(F)cc3)c(=O)c2c(C)n1Cc1cccc(Cl)c1 | 2.63% |
| CCOCCCN(Cc1ccco1)S(=O)(=O)c1cc2c(cc1Cl)NC(=O)CO2 | 0.0593% |
| COc1ccc(NC(c2nnc(-c3ccccc3)o2)c2ccccc2F)cc1Cl (centres undefined) | -13.2% |
| COc1cc(NC(=O)CSc2nnc(C)n3c2cc2oc(C)cc23)cc(OC)c1 | 6.65% |
| Cc1ccccc1-c1noc(-c2ccc(N3CCCCC3)c([N+](=O)[O-])c2)n1 | 18.7% |
| CCc1ccc(OC(C)C(=O)N2CCC(c3nc4ccccc4o3)CC2)cc1 (centres undefined) | 0.336% |
| Cc1ccc(C(=O)Nc2ccc3c(c2)n(C)c(=O)c(=O)n3C)cc1 | -8.95% |
| COc1ccc(CNS(=O)(=O)c2ccc(N3CCCCS3(=O)=O)cc2)cc1 | 10.8% |
| CC1CCN(Cc2c(O)ccc3c(=O)c(Oc4ccccc4Cl)c(C(F)(F)F)oc23)CC1 | 11.2% |

| Compound | inhibition |
| --- | --- |
| Cc1ccc(NC(=O)Cn2nc(C(=O)Nc3ccc(C)cc3)ccc2=O)cc1 | 9.2% |
| O=C(COc1ccccc1F)Nc1ccc2nc(SCCOc3ccccc3)sc2c1 | 9.81% |
| COc1ccc(NC(=O)CC2C(=O)N(c3cccc(OC)c3)C(=O)N2CCc2cccs2)cc1 (centres undefined) | 20.7% |
| Cc1ccc(NC(=O)Cn2c(=O)n(Cc3nc(-c4ccccc4)no3)c(=O)c3cc4c(cc32)OCO4)cc1F | -0.73% |
| CC(C)c1ccc(Cn2c(COc3ccccc3)nc3ccccc32)cc1 | 3.18% |
| COc1ccc(S(=O)(=O)NCC(c2ccco2)S(=O)(=O)c2ccc(C)cc2)cc1F (centres undefined) | 13.3% |
| Cc1sc(NC(=O)CCC(=O)O)c(C(N)=O)c1-c1ccccc1 | active: 47.5% |
| CCn1nc(C)c2c(-c3ccccc3)cc(=O)n(C(C)C(=O)NCCC(C)C)c21 (centres undefined) | -9.76% |
| Cc1ccccc1C(=O)Nc1nnc(S(=O)(=O)N(C)Cc2ccccc2)s1 | 14.3% |
| COc1ccc(-n2c(-c3ccc(C)cc3)cc3c2CC(C)(C)CC3=O)cc1Cl | -7.16% |
| CCOC(=O)C1(Cc2ccccc2)CCN(Cc2nccn2CC)CC1 | active: 65.2% |
| CCOC(=O)c1ccc(NC(=O)CC2C(=O)N(c3ccc(F)cc3)C(=O)N2Cc2cccnc2)cc1 (centres undefined) | 2.07% |
| CC1CCN(C(=O)Cn2c(=O)n(CC3CCC(C(=O)NC(C)C)CC3)c(=O)c3sccc32)CC1 (centres undefined) | 6.05% |
| O=C(NCCCN1CCCCC1)c1sc2ncccc2c1-n1cccc1 | 9.96% |
| COc1ccc(-c2nc(SCC(=O)NC3CCCC3)c(-c3ccc(F)cc3)[nH]2)cc1 | -8.05% |
| O=C(Nc1cc(-c2nc3ccccc3o2)ccc1Cl)c1sc2c([N+](=O)[O-])cccc2c1Cl | -12.9% |
| CCOc1ccc(CN2CCc3nc(N4CCN(c5ccccc5OC)CC4)ncc3C2)cc1OC | -7.44% |
| CC(C)(C)OC(=O)N1CCC(c2c(C(=O)NCc3cccc(Cl)c3)cnn2-c2ccc(F)cc2)CC1 | -7.57% |
| COc1cc(/C=C(\C#N)C(=O)NCC2CCCO2)ccc1O (centres undefined) | 5.64% |
| CCc1ccccc1NC(=O)CSc1nc(-c2cccc(Cl)c2)nc2c1Cc1c(CO)cnc(C)c1O2 | -3.41% |
| Cc1cc(C)n(C(C)CC(=O)Nc2cccc(C(F)(F)F)c2)n1 (centres undefined) | -0.495% |
| CCN(CC)c1ccc(NC(=O)C2CCN(c3nnc(-n4cccc4)s3)CC2)c(C)c1 | 2.29% |
